The record followed here is PMC12505454 (The Febs Journal, 2025).

The target in assay [1] is T1, adenylyl cyclase Rv1625c (Mycobacterium tuberculosis, UniProt P9WQ35). The assay can be described thus: biochemical.
In assay [2] the target is T1, adenylyl cyclase Rv1625c. The assay can be described thus: biochemical.

Molecules are shown by their SMILES. pIC50: −log10 of the molar value. Like-named read-outs stand apart in the source and are kept apart here.

T1 sequence (P9WQ35 whole entry): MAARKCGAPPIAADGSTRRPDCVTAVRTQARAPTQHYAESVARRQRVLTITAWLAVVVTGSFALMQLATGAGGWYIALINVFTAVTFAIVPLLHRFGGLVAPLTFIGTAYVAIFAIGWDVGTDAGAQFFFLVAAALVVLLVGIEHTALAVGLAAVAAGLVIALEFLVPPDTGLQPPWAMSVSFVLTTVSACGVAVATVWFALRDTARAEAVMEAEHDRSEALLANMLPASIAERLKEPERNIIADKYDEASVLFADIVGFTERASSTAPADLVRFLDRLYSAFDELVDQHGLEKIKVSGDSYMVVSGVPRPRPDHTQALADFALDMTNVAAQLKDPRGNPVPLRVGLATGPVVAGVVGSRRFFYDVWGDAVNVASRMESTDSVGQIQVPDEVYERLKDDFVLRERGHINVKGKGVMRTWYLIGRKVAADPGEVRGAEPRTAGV

Broadly, the pIC50 is the negative decadic logarithm of the IC50, by convention in mol/L. In the case of `CCCCCCCC/C=C\CCCCCCCC(=O)O` [oleic acid, (Z)-9-octadecenoic acid], the pIC50 against adenylyl cyclase Rv1625c [1] is 4.74. Consider `CCCCCCCC/C=C/CCCCCCCC(=O)O` [elaidic acid, (E)-9-octadecenoic acid], for which the negative logarithm of the IC50 (pIC50) on adenylyl cyclase Rv1625c [2] was 5.05. Still for that read-out and setting: next, `CCCCCC/C=C\CCCCCCCCCC(=O)O` [cis-vaccenic acid]: 4.75; `CCCCCC/C=C/CCCCCCCCCC(=O)O` [trans-vaccenic acid]: 5.05.
